Results: paper PMC4336329 (PLoS ONE, 2015)
Screen size: about 310,000 compounds; about 14,000 (4.5%) showed an effect of 50% or more. The effect is printed as a negative number. The list shows a part of the results.

Target: human ether-à-go-go-related gene (hERG) potassium channel (human, UniProt Q12809)
Experiment: primary screen, population patch clamp on CHO cells stably expressing hERG
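Note: peak tail current of the secondary pulse compared with the same well before compound.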

Sequence of human ether-à-go-go-related gene (hERG) potassium channel (Q12809 whole entry, looked up): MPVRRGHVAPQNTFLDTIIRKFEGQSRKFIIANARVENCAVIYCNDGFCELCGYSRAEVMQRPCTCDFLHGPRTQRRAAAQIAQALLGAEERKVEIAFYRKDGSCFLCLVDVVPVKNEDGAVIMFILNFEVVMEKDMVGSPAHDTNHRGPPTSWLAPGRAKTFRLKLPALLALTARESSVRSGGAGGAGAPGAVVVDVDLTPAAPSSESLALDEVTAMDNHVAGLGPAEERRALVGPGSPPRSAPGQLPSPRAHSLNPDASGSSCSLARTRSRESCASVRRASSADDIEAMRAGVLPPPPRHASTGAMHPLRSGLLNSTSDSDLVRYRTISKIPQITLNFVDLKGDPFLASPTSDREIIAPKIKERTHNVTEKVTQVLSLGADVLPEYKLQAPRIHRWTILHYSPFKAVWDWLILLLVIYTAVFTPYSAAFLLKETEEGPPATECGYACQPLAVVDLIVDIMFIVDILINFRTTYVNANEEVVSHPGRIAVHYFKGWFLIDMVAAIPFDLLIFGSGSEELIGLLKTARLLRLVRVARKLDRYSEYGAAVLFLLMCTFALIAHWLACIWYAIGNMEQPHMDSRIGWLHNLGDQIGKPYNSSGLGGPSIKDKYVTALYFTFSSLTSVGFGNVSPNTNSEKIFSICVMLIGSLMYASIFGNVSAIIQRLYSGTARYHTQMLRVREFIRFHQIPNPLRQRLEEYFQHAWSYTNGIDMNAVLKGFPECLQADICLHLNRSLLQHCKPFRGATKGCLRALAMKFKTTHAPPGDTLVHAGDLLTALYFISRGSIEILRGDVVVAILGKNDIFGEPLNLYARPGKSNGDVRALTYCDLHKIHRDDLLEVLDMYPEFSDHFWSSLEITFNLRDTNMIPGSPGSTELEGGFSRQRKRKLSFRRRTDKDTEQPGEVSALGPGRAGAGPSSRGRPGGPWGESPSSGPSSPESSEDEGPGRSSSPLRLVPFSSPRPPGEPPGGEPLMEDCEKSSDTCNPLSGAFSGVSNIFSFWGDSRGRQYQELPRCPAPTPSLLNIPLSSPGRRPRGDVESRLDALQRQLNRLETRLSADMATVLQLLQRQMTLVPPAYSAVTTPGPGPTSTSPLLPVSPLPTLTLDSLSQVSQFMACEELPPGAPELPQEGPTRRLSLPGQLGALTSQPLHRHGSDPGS

| SMILES | hERG current change (%, negative = inhibition) at 10uM |
| --- | --- |
| CCc1ccc(-c2c(C)sc(NC(=O)C3CCC3)c2C#N)cc1 | 15.9% |
| O=C(O)C1CCCCC1C(=O)Nc1ccc(-c2ccccc2)cc1 (centres unmarked) | 8.19% |
| COc1cc2c(cc1OC)C(C(=O)NCC1COc3ccccc3O1)C(c1cccnc1)N(C)C2=O (centres unmarked) | -12.6% |
| CC1Cc2ccccc2N1Cc1cccc([N+](=O)[O-])c1 (centres unmarked) | 13% |
| CCn1cc(CN2CCCC(CNC(=O)COc3ccccc3OC)C2)c(C)n1 (centres unmarked) | 4.58% |
| CC(=O)C1=C(O)C(=O)N(CC#N)C1c1cccs1 (centres unmarked) | 21% |
| O=C(c1cc(Br)ccc1Cl)N1CCC2(CC1)OCCO2 | -11.4% |
| O=C(CN1C(=O)c2ccccc2C1=O)OCc1nc2ccsc2c(=O)[nH]1 | 8.55% |
| COc1ccc(C2=NN(C(=O)CCC(=O)O)C(c3cccs3)C2)cc1 (centres unmarked) | 9.91% |
| Cc1nc2scc(-c3cccs3)c2c(=O)o1 | 6% |
| Cc1cccnc1NC(=O)/C=C/c1ccc2c(c1)OCO2 | -2.88% |
| Cc1cc(C)cc(OC(=O)CCN2C(=O)C3C4C=CC(C5CC45)C3C2=O)c1 (centres unmarked) | -10.2% |
| Cn1c(SCC(=O)N2CCCC2=O)nnc1-c1ccccc1F | 9.56% |
| FC(F)C(F)(F)C1=CC(c2ccccc2)=NCCN1 | -24.4% |
| O=S(=O)(NCc1ccco1)N1CCCCCC1 | 9.74% |
| Cc1ccc(C)c(N2CCN(CCCNC(=O)CCC(=O)N3CCOc4ccc(Cl)cc43)CC2)c1 | -55.9% |
| CCCCC(=O)N1CCN(c2ccc(OC)cc2[N+](=O)[O-])CC1 | -64.5% |
| Cc1ccc(OCC(=O)N2CCCC(CO)(CCOc3ccccc3)C2)cc1 (centres unmarked) | -30.4% |
| O=C(COc1ccc2c3c(c(=O)oc2c1)CCC3)Nc1ccccn1 | 12.2% |
| O=C(O)c1cc([N+](=O)[O-])ccc1NCCc1ccccc1 | 14.4% |
| O=C(O)C(=O)O.O=S(=O)(c1ccc(F)cc1)N1CCC(N2CCCC2)CC1 | -15% |
| O=C1C=CCC(/C=C/c2ccccc2)O1 (centres unmarked) | 13.3% |
| COc1ccccc1CNC(=O)CCN1C(=O)c2ccccc2C1=O | 12.3% |
| Cc1nn(CC(=O)NCC2CCCO2)c(C)c1[N+](=O)[O-] (centres unmarked) | 33% |
| Cc1nn(Cc2ccccc2)c2c1C(c1cccnc1)C(C#N)=C(N)O2 (centres unmarked) | 3.79% |
| Cc1cccc(C)c1NC(=S)/C(=C(\[O-])c1cccs1)[n+]1ccccc1 | -18.8% |
